Experimental findings from PMC4336329 (PLoS ONE, 2015) are described below.

Molecules are shown by their SMILES. Out of some 310,000 compounds screened, about 2,200 (0.71%) showed an effect of 50% or more. The effect is printed as a negative number. The list shows a part of the results.

Sequence of human ether-à-go-go-related gene (hERG) potassium channel (Q12809 whole entry, looked up): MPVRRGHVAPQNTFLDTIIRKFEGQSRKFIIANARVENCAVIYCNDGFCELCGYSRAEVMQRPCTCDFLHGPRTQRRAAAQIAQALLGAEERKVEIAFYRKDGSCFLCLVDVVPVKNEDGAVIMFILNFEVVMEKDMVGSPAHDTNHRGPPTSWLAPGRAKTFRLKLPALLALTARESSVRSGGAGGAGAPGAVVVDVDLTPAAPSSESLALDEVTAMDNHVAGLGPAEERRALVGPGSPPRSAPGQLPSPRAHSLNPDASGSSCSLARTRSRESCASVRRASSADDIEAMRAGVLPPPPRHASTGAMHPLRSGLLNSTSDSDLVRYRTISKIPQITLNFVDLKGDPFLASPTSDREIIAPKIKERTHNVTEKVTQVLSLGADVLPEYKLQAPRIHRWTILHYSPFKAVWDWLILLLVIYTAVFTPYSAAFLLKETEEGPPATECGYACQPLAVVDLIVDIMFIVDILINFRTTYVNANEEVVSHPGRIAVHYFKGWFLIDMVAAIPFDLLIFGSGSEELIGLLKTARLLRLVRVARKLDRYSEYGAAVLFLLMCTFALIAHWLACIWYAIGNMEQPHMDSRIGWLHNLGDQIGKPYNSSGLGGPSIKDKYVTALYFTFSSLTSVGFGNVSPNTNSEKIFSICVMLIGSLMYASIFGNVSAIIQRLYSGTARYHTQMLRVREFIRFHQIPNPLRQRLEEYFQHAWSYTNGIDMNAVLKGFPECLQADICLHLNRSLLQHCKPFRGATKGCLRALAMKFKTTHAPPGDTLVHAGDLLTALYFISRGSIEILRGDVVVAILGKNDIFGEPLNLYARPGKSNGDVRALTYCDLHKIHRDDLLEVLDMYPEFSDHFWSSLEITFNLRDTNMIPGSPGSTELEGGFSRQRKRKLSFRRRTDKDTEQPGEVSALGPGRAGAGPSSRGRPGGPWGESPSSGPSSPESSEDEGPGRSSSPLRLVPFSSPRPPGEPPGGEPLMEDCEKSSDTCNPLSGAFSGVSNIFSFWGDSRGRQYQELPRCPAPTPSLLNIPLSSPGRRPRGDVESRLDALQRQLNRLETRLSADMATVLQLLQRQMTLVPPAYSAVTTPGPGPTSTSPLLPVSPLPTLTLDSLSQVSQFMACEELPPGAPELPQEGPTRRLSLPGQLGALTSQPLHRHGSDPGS

The test concerns the target human ether-à-go-go-related gene (hERG) potassium channel (human, UniProt Q12809). The experiment in a line: primary screen, population patch clamp on CHO cells stably expressing hERG.
In the case of `CCn1c(SCc2ccc(Cl)c(Cl)c2)nnc1C(C)NC(=O)c1ccc(OC)cc1` (stereo not drawn), the “hERG current change (%, negative = inhibition) at 1uM” value turned out to be 14.7%. As to `CCOC(=O)N1C=CC=C[C@@H]2[C@@H](N3C(=O)c4ccccc4C3=O)C(=O)N21`, the “hERG current change (%, negative = inhibition) at 1uM” value is listed as 12%.

Turning to `CC(C)C(OC(=O)c1ccc(Cl)nc1)C(=O)NC1CCCCC1` (stereo not drawn), the “hERG current change (%, negative = inhibition) at 1uM” value came to 13.7%.

For `Cc1ccc(CNC(=O)c2ccc(CS(=O)(=O)c3ccccc3C)o2)cc1`, the “hERG current change (%, negative = inhibition) at 1uM” value turned out to be 21.2%. In the case of `CCOC(=O)c1c(/N=C/C2=C(O)CC(C)(C)CC2=O)sc2c1CCCC2`, the “hERG current change (%, negative = inhibition) at 1uM” value is reported as 9.11%.

For the molecule `CC(C)CNS(=O)(=O)c1ccc(OCC(=O)Nc2ccc3c(c2)OCO3)c(Cl)c1`, the “hERG current change (%, negative = inhibition) at 1uM” value was determined as 7.28%. The result for `Cc1ccc(C(=O)N/N=C2\CCc3ccccc32)c(C)c1` reads 8.99%. `Cc1ccc(S(=O)(=O)N(CC(O)CN2C(=O)NC(C)(C)C2=O)c2ccccc2)cc1` (stereo not drawn): the “hERG current change (%, negative = inhibition) at 1uM” value is -28.4%. On to `O=C(CNC(=O)c1cccc(OC(F)F)c1)OCn1nnc2ccccc2c1=O`, for which the “hERG current change (%, negative = inhibition) at 1uM” value amounted to 13.3%. The value for `CCOc1ccc2nc3cc(NCc4ccc(OC)cc4)ccc3c(N)c2c1` was 7%; that for `CC(C)OCCCNC(=O)CN1C(=O)CSc2ccc(S(=O)(=O)N3CCCCC3)cc21` was 0.359%.

For `Nc1cc(-c2ccc(Cl)cc2)nn1-c1ccccc1`, the “hERG current change (%, negative = inhibition) at 1uM” value was found to be 4.45%. Take `CC(OCc1ccccc1)C(NC(=O)OC(C)(C)C)C(=O)NCC1CCCO1` (stereo not drawn): the “hERG current change (%, negative = inhibition) at 1uM” value is recorded as 2.37%. As to `COc1ccc(-n2nc3c(N4CCC(C(=O)NCc5ccccc5)CC4)nnc(C)c3c2C)cc1`, the “hERG current change (%, negative = inhibition) at 1uM” value is listed as 20.3%. Turning to `O=C(CSc1nnc(-c2ccccc2O)o1)Oc1ccc(OCc2ccccc2)cc1`, the “hERG current change (%, negative = inhibition) at 1uM” value is 18%.

`Cc1cc(C)c(C(=O)N2CCCC(N3CCN(c4cccc(C(F)(F)F)c4)CC3)C2)o1` (stereo not drawn): the “hERG current change (%, negative = inhibition) at 1uM” value is 4.1%. On to `Cc1csc2ncnc(N3CCN(C(=S)Nc4ccc(F)cc4F)CC3)c12`, for which the “hERG current change (%, negative = inhibition) at 1uM” value is recorded as -2.52%. In the case of `N#CCCN(C(=O)COC(=O)CCc1nc2ccccc2c(=O)[nH]1)c1ccc(F)cc1`, the “hERG current change (%, negative = inhibition) at 1uM” value was 7.83%. The result for `CC(C)Oc1ccc(/C(O)=C2/C(=O)C(=O)N(CCCn3ccnc3)C2c2cccnc2)cc1` (stereo not drawn) reads 10.6%; that for `CC(C)Cc1ccc(C(=O)Nc2ccc(Cc3ccncc3)cc2)o1`, 11.9%; that for `COc1ccc(OC)c(CCNC(=O)c2ccc(CS(=O)(=O)c3ccc(Br)cc3)o2)c1`, 5.55%.

Regarding `O=C(Nc1ccccc1N1CCCCC1)C1CCN(C(=O)c2ccc(Cl)cc2)CC1`, the “hERG current change (%, negative = inhibition) at 1uM” value was -28.6%.

As for `CC(NC(=O)c1cccc(OC2CCN(C3CCN(C)CC3)CC2)c1)c1ccccc1` (stereo not drawn), the “hERG current change (%, negative = inhibition) at 1uM” value came out at 13.6%. Turning to `COCC(=O)N(Cc1cc2ccc(C)cc2[nH]c1=O)c1ccccc1C`, the “hERG current change (%, negative = inhibition) at 1uM” value turned out to be 10.9%.

As for `CCc1cc2c(=O)n(-c3ccccc3)c(=S)[nH]c2s1`, the “hERG current change (%, negative = inhibition) at 1uM” value turned out to be 11.3%. The value for `CSC1=NNC(c2ccc(C(C)(C)C)cc2)=NN1` was -9.5%; that for `Cc1nc(C)c(C(=O)NCc2ccccc2Cl)o1` was 10.8%. With `CC(=O)C1=C(C)NC(C)=C(C(C)=O)C1c1cccs1`, the “hERG current change (%, negative = inhibition) at 1uM” value is on record as 11.2%. With `O=C(N/N=C/c1ccco1)C1CC(=O)N(c2ccccc2)C1` (stereo not drawn), the “hERG current change (%, negative = inhibition) at 1uM” value amounted to 1.02%. As to `CC(=O)Nc1ccc(N2CCN(C(=O)c3cccs3)CC2)cc1`, the “hERG current change (%, negative = inhibition) at 1uM” value is recorded as 12.3%.

In the case of `CC1C(=O)N2CCCc3cc(S(=O)(=O)N4CCN(c5ccccc5F)CC4)cc1c32` (stereo not drawn), the “hERG current change (%, negative = inhibition) at 1uM” value is 18.3%. The result for `Cc1cc(Cl)ccc1OC(C)C(=O)Nc1cnn(CCCC(=O)O)c1` (stereo not drawn) reads 10.4%; that for `O=C(NCc1ccccn1)C1(C(F)(F)F)C/C(=C\CCO)CCCO1` (stereo not drawn), 8.39%. As for `COc1ccc(-n2c(CNC(=O)COc3ccc(Cl)cc3Cl)n[nH]c2=S)cc1`, the “hERG current change (%, negative = inhibition) at 1uM” value is 1.91%. The result for `Cc1ccccc1N1C(=O)c2cccc3cccc(c23)C1=O` reads 0.548%; that for `Cc1nn(C)cc1CN1CCC(CO)(CCOc2ccccc2)CC1`, 8.14%.

Regarding `CCSc1nc2ccccc2n1Cc1ccccc1F`, the “hERG current change (%, negative = inhibition) at 1uM” value is recorded as 2.61%.

Regarding `COCC(=O)Nc1ccc(S(=O)(=O)NCCc2ccccc2)cc1`, the “hERG current change (%, negative = inhibition) at 1uM” value stood at 5.7%. As to `O=C(Nc1ccc(S(=O)(=O)Nc2nccs2)cc1)/C(=C/c1ccccc1Cl)NC(=O)c1ccccc1`, the “hERG current change (%, negative = inhibition) at 1uM” value is 8.01%. With `CCN(CC)CCC(c1cc(OC)c(OC)c(OC)c1)c1c(OC)cc(OC)c2c(C)cc(=O)oc12` (stereo not drawn), the “hERG current change (%, negative = inhibition) at 1uM” value was -9.35%. Consider `CC(Sc1ncnc2ccccc12)C(=O)Nc1ccc2c(c1)OCCO2` (stereo not drawn), for which the “hERG current change (%, negative = inhibition) at 1uM” value was 12.3%. The value for `CC(C(N)=O)N1C(=O)c2cccc3cccc1c23` (stereo not drawn) was 4.13%; that for `NC(=O)C1CCN(C(=O)C2CC(=O)N(Cc3ccccc3)C2)CC1` (stereo not drawn) was 4.11%; that for `O=S(=O)(c1cccs1)N1CCN(CC(O)COc2cccc(Br)c2)CC1` (stereo not drawn) was -11.2%. For the molecule `CCCNC(=O)c1ccc(Cl)cc1Cl`, the “hERG current change (%, negative = inhibition) at 1uM” value turned out to be 6.2%. With `O=C(c1ccc(S(=O)(=O)N2CCCCCC2)cc1)N1CCN(c2ccccc2)CC1`, the “hERG current change (%, negative = inhibition) at 1uM” value is listed as -21.8%. The value for `CS(=O)(=O)c1ccc2nc(NC(=O)c3ccc(NS(=O)(=O)c4cccc([N+](=O)[O-])c4)cc3)sc2c1` was 12.6%; that for `O=[N+]([O-])c1ccc(CSc2nnc3ccccn23)cc1` was -8.12%; that for `O=c1c2ccccc2nc(/C=C/c2ccccc2O)n1-c1ccccc1O` was 13.6%. `COc1ccc(Br)cc1C(=O)Nc1ccccc1N1CCN(C(=O)c2ccccc2)CC1`: the “hERG current change (%, negative = inhibition) at 1uM” value is 7.55%. With `COC(=O)CSc1nnc(-c2ccco2)n1-c1ccc(C)cc1`, the “hERG current change (%, negative = inhibition) at 1uM” value is recorded as -5.28%. Turning to `Cc1ccc(NC(=O)CSC2=C(C#N)C(c3ccco3)C3=C(CC(C)(C)CC3=O)N2)cc1` (stereo not drawn), the “hERG current change (%, negative = inhibition) at 1uM” value came to 18.7%. The value for `O=C(CCc1nnc2n(Cc3ccc(Cl)cc3)c(=O)c3ccccc3n12)NCCCN1CCOCC1` was -27.1%. Regarding `O=C(c1ccc(CSc2ccc(Cl)cc2)cc1)N1CCCC1`, the “hERG current change (%, negative = inhibition) at 1uM” value worked out at 9.01%.

Consider `COc1cc(/C=N/N=C(/N)c2nonc2N)cc(Br)c1OCc1cccc(C)c1`, for which the “hERG current change (%, negative = inhibition) at 1uM” value is recorded as 7.35%.

`O=C(NC(NC(=S)N1CCOCC1)C(Cl)(Cl)Cl)c1cccc2ccccc12` (stereo not drawn): the “hERG current change (%, negative = inhibition) at 1uM” value amounted to 10.1%. On to `CCOC(=O)c1c(NC(=O)C2C3CCC(O3)C2C(=O)O)sc(C)c1-c1ccc(F)cc1` (stereo not drawn), for which the “hERG current change (%, negative = inhibition) at 1uM” value was found to be 1.64%. Regarding `CCCCN(C(=O)CN1C(=O)C2CC=CCC2C1=O)c1c(N)n(CCC)c(=O)[nH]c1=O` (stereo not drawn), the “hERG current change (%, negative = inhibition) at 1uM” value was 5.71%. In the case of `Cc1ccc(/C(O)=C2\C(=O)C(=O)N(Cc3cccnc3)C2c2ccccc2[N+](=O)[O-])cc1` (stereo not drawn), the “hERG current change (%, negative = inhibition) at 1uM” value worked out at 13.4%.

Consider `COC(=O)c1c(NC(=O)Cn2cnc([N+](=O)[O-])n2)sc2c1CCC(C)C2` (stereo not drawn), for which the “hERG current change (%, negative = inhibition) at 1uM” value was determined as 8.84%. The result for `COc1c(C)cccc1C(=O)Nc1ccc(CN2CCOCC2)cc1` reads 4.45%; that for `Clc1ccccc1Cn1nnc(-c2ccccc2)n1`, 5.98%; that for `Cc1cc(C)n(CC(=O)NCc2cc(-c3nn(C)c(=O)c4ccccc34)ccc2C)n1`, 2.9%. For `C=CCNc1nc(-c2c(C)nc3ncccn23)cs1`, the “hERG current change (%, negative = inhibition) at 1uM” value was determined as 6.73%. The result for `COc1ccc(C(NC(=O)c2cc(OC)ccc2OC)c2ccccc2)cc1` (stereo not drawn) reads 11.2%. With `COC(=O)N1c2ccccc2CCc2ccccc21`, the “hERG current change (%, negative = inhibition) at 1uM” value is 5.26%. On to `N#CC(c1ccc(Cl)cc1)c1ccc2c(C(F)(F)F)cc(C(F)(F)F)nc2n1` (stereo not drawn), for which the “hERG current change (%, negative = inhibition) at 1uM” value was determined as 8.23%.

Take `O=C(c1ccc2c(c1)OCO2)C1CCCN(Cc2ccccc2OC(F)F)C1` (stereo not drawn): the “hERG current change (%, negative = inhibition) at 1uM” value was -16.9%. The value for `COc1cc2c(c(OC)c1CC=C(C)C)C[C@H](c1ccc(O)cc1O)CO2` was 18.2%; that for `O=C(O)C(Cc1c[nH]c2ccccc12)NS(=O)(=O)c1cccc(Cl)c1Cl` (stereo not drawn) was 14.1%; that for `O=C(COc1cccc(C(F)(F)F)c1)NCC(c1cccs1)N1CCOCC1` (stereo not drawn) was -5.17%. As for `Cc1cc(=O)oc2cc(OC(=O)c3cncc(Br)c3)ccc12`, the “hERG current change (%, negative = inhibition) at 1uM” value was determined as 10.6%. `COc1ccc(C2/C=C\CN(C(=O)c3ccc(C)cc3)CC(=O)N2Cc2ccc(F)cc2)cc1` (stereo not drawn): the “hERG current change (%, negative = inhibition) at 1uM” value amounted to 2.19%.

As to `O=C(COC(=O)c1cccc(S(=O)(=O)N2CCOCC2)c1)Nc1ccc(Cl)cn1`, the “hERG current change (%, negative = inhibition) at 1uM” value is -4.49%.

For `O=C(CSc1nc(Cc2ccccc2)nc2ccccc12)Nc1nc2c(s1)CCCC2`, the “hERG current change (%, negative = inhibition) at 1uM” value is reported as 15.9%.

`COCc1ccc(-c2c(-c3ccccc3OC)sc3cc4c(cc23)OCO4)cc1`: the “hERG current change (%, negative = inhibition) at 1uM” value stood at 13.3%. The result for `COc1ccccc1NC(=O)/C=C\C(=O)O` reads 14.5%. As to `COc1cccc(CNC(=O)c2cccs2)c1`, the “hERG current change (%, negative = inhibition) at 1uM” value was found to be 2.23%. Regarding `O=c1oc2ccccc2c(NCc2cccc(F)c2)c1[N+](=O)[O-]`, the “hERG current change (%, negative = inhibition) at 1uM” value came out at 1.4%. Regarding `COCc1c(C(=O)NCc2ccccc2CN2CCCC2)oc2ccccc12`, the “hERG current change (%, negative = inhibition) at 1uM” value was -34%. For the molecule `O=c1[nH]c(/C=C/c2cccc([N+](=O)[O-])c2)c([N+](=O)[O-])c(=O)[nH]1`, the “hERG current change (%, negative = inhibition) at 1uM” value was found to be 6.3%. `Cc1ccc(-c2csc(NC(=O)c3cccc(C)c3)c2C(=O)O)cc1`: the “hERG current change (%, negative = inhibition) at 1uM” value stood at 15.8%. Turning to `CCOc1ccc(NC2c3ccccc3C(=O)N2Cc2ccc3c(c2)OCO3)cc1` (stereo not drawn), the “hERG current change (%, negative = inhibition) at 1uM” value turned out to be 8.68%.

As for `CCOc1ccc(N(CC(=O)NCc2ccc3c(c2)OCO3)C(=O)c2csnn2)cc1`, the “hERG current change (%, negative = inhibition) at 1uM” value was 13.2%.
